The source of these data is the supplement of paper PMC4967469.

Compound in the assay: Cn1c(=O)n(-c2ccc(C(C)(C)C#N)cc2)c2c3cc(-c4cnc5ccccc5c4)ccc3ncc21 [NVP-BEZ235]
As to the kind of experiment: Viability of human cancer cell lines after 72 h of drug (GDSC screen). Here is the method: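 Human cancer cell lines in 384-well plates, medium with 10% serum, drug for 72 h over a 256-fold dose range (nine 2-fold or five 4-fold steps up to the top dose). Adherent lines were fixed and stained with the nucleic acid dye Syto60, suspension lines read with resazurin; signal relative to control wells, capped at 0 and 100%. One two-parameter sigmoid per drug and line, fitted in a mixed model over all curves with the slope shared within a line.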

Lines with a small IC50 respond at low doses; fits outside the tested doses are given as limits. AUC sums up the same curve from the lowest dose to the 256-fold higher top dose; it is 1 without any effect and falls as sensitivity rises.

With “NCI-H2066 (small cell lung carcinoma, adherent, top dose 0.25 µM)”, the AUC worked out at 0.923 and the IC50 (commonly the concentration that gives 50% inhibition) was greater than 250 nM.
With “NCI-H2081 (small cell lung carcinoma, suspension, top dose 0.25 µM)”, the AUC worked out at 0.921 and the IC50 is greater than 250 nM.
For “NCI-H2085 (lung adenocarcinoma, adherent, top dose 0.25 µM)”, in that order: 0.585 and 27.2 nM.
Turning to “NCI-H2087 (lung adenocarcinoma, semi-adherent, top dose 0.25 µM)”, the AUC was 0.846 and the IC50 came out at 204 nM.
Regarding “NCI-H2110 (non-small cell lung carcinoma, adherent, top dose 0.25 µM)”, the AUC turned out to be 0.781 and the half-inhibitory concentration (IC50) worked out at 107 nM.
Take “NCI-H2135 (non-small cell lung carcinoma, adherent, top dose 0.25 µM)”: the AUC came out at 0.991 and the IC50 is greater than 250 nM.
For “NCI-H2141 (small cell lung carcinoma, suspension, top dose 0.25 µM)”, in that order: 0.956 and greater than 250 nM.
Consider “NCI-H2172 (non-small cell lung carcinoma, adherent, top dose 0.25 µM)”, for which the AUC amounted to 0.831 and the IC50 amounted to 243 nM.
In the case of “NCI-H2227 (small cell lung carcinoma, semi-adherent, top dose 0.25 µM)”, the AUC amounted to 0.759 and the IC50 amounted to 98 nM.
Take “NCI-H2291 (lung adenocarcinoma, adherent, top dose 0.25 µM)”: the AUC came out at 0.864 and the IC50 is greater than 250 nM.
For the cell line “NCI-H2342 (lung adenocarcinoma, adherent, top dose 0.25 µM)”, the AUC turned out to be 0.897 and the half-maximal inhibitory concentration (IC50) was greater than 250 nM.
The like results for “NCI-H2347 (lung adenocarcinoma, adherent, top dose 0.25 µM)” were, in that order, 0.78 and 127 nM.
For “NCI-H2405 (lung adenocarcinoma, adherent, top dose 0.25 µM)”, in that order: 0.679 and 52.3 nM.
As for “NCI-H2444 (non-small cell lung carcinoma, adherent, top dose 0.25 µM)”, the AUC came to 0.829 and the half-inhibitory concentration (IC50) came to 186 nM.
For “NCI-H2452 (mesothelioma, adherent, top dose 0.25 µM)”, in that order: 0.668 and 50.7 nM.
On to “NCI-H3122 (lung adenocarcinoma, adherent, top dose 0.25 µM)”, for which the AUC is 0.752 and the IC50 was determined as 85.3 nM.
For “NCI-N87 (stomach, adherent, top dose 0.25 µM)”, in that order: 0.824 and 248 nM.
“NCI-SNU-1 (stomach, suspension, top dose 0.25 µM)”: the AUC came out at 0.967 and the 50% inhibitory concentration (IC50) was greater than 250 nM.
Take “NCI-SNU-5 (stomach, suspension, top dose 0.25 µM)”: the AUC stood at 0.62 and the IC50 came out at 33.5 nM.
On to “NCI-SNU-16 (stomach, suspension, top dose 0.25 µM)”, for which the AUC amounted to 0.901 and the IC50 is greater than 250 nM.
On to “NEC8 (testis, adherent, top dose 0.25 µM)”, for which the AUC was found to be 0.744 and the half-inhibitory concentration (IC50) worked out at 68.3 nM.
Consider “NH-12 (neuroblastoma, adherent, top dose 0.25 µM)”, for which the AUC was 0.775 and the 50% inhibitory concentration (IC50) was 111 nM.
The like results for “NKM-1 (acute myeloid leukaemia, suspension, top dose 0.25 µM)” were, in that order, 0.78 and 106 nM.
For “NMC-G1 (glioma, adherent, top dose 0.25 µM)”, in that order: 0.777 and 124 nM.
On to “NOMO-1 (acute myeloid leukaemia, suspension, top dose 0.25 µM)”, for which the AUC worked out at 0.59 and the IC50 was found to be 28.5 nM.
For “NOS-1 (osteosarcoma, adherent, top dose 0.25 µM)”, in that order: 0.625 and 37.4 nM.
For “NU-DUL-1 (B-cell lymphoma, suspension, top dose 0.25 µM)”, in that order: 0.608 and 29 nM.
For the cell line “NUGC-3 (stomach, adherent, top dose 0.25 µM)”, the AUC came out at 0.506 and the IC50 is 16.2 nM.
For “NUGC-4 (stomach, adherent, top dose 0.25 µM)”, in that order: 0.975 and greater than 250 nM.
The like results for “NY (osteosarcoma, adherent, top dose 0.25 µM)” were, in that order, 0.832 and 157 nM.
“OACM5-1 (oesophagus, semi-adherent, top dose 0.25 µM)”: the AUC is 0.917 and the IC50 is greater than 250 nM.
With “OACp4C (oesophagus, adherent, top dose 0.25 µM)”, the AUC is 0.728 and the IC50 is 80.2 nM.
As to “OAW-28 (ovary, adherent, top dose 0.25 µM)”, the AUC was 0.91 and the IC50 is greater than 250 nM.
Consider “OAW-42 (ovary, adherent, top dose 0.25 µM)”, for which the AUC is 0.734 and the IC50 amounted to 77.3 nM.
The like results for “OC-314 (ovary, adherent, top dose 0.25 µM)” were, in that order, 0.711 and 55.6 nM.
In the case of “OCI-AML2 (acute myeloid leukaemia, suspension, top dose 0.25 µM)”, the AUC was 0.87 and the half-maximal inhibitory concentration (IC50) stood at 139 nM.
For “OCI-AML3 (acute myeloid leukaemia, suspension, top dose 0.25 µM)”, in that order: 0.735 and 64.7 nM.
In the case of “OCI-AML5 (acute myeloid leukaemia, suspension, top dose 0.25 µM)”, the AUC was determined as 0.847 and the concentration for half-maximal inhibition (IC50) turned out to be 160 nM.
“OCI-LY7 (B-cell lymphoma, suspension, top dose 0.25 µM)”: the AUC amounted to 0.453 and the half-inhibitory concentration (IC50) was 12.1 nM.
Regarding “OCI-LY-19 (B-cell lymphoma, suspension, top dose 0.25 µM)”, the AUC amounted to 0.775 and the half-inhibitory concentration (IC50) turned out to be 91.3 nM.
The like results for “OCI-M1 (acute myeloid leukaemia, suspension, top dose 0.25 µM)” were, in that order, 0.867 and 141 nM.
The like results for “OCUB-M (breast, adherent, top dose 0.25 µM)” were, in that order, 0.767 and 80.9 nM.
The like results for “OCUM-1 (stomach, adherent, top dose 0.25 µM)” were, in that order, 0.784 and 119 nM.
As to “OE19 (oesophagus, adherent, top dose 0.25 µM)”, the AUC was found to be 0.857 and the 50% inhibitory concentration (IC50) is 247 nM.
For “OE21 (oesophagus, adherent, top dose 0.25 µM)”, in that order: 0.405 and 7.79 nM.
Consider “OE33 (oesophagus, adherent, top dose 0.25 µM)”, for which the AUC worked out at 0.791 and the IC50 worked out at 136 nM.
The like results for “OMC-1 (cervix, adherent, top dose 0.25 µM)” were, in that order, 0.785 and 112 nM.
Regarding “ONS-76 (medulloblastoma, adherent, top dose 0.25 µM)”, the AUC is 0.602 and the concentration for half-maximal inhibition (IC50) came out at 30.4 nM.
For “OPM-2 (myeloma, suspension, top dose 0.25 µM)”, in that order: 0.778 and 82.8 nM.
The like results for “OS-RC-2 (kidney, adherent, top dose 0.25 µM)” were, in that order, 0.518 and 17.9 nM.
The like results for “OSC-19 (head and neck, adherent, top dose 0.25 µM)” were, in that order, 0.402 and 8.32 nM.
As to “OSC-20 (head and neck, adherent, top dose 2 µM)”, the AUC is 0.253 and the IC50 is 21.1 nM.
As for “OV-7 (ovary, adherent, top dose 0.25 µM)”, the AUC came out at 0.676 and the IC50 was 62.7 nM.
For “OV-17R (ovary, adherent, top dose 0.25 µM)”, in that order: 0.792 and 167 nM.
For the cell line “OV-56 (ovary, adherent, top dose 0.25 µM)”, the AUC was 0.579 and the IC50 was found to be 25.5 nM.
The like results for “OV-90 (ovary, adherent, top dose 0.25 µM)” were, in that order, 0.431 and 9.58 nM.
As to “OVCA420 (ovary, adherent, top dose 0.25 µM)”, the AUC turned out to be 0.783 and the half-maximal inhibitory concentration (IC50) came out at 144 nM.
Take “OVCA433 (ovary, adherent, top dose 0.25 µM)”: the AUC worked out at 0.664 and the concentration for half-maximal inhibition (IC50) was determined as 47.1 nM.
For “OVCAR-3 (ovary, adherent, top dose 0.25 µM)”, the AUC turned out to be 0.885 and the IC50 was greater than 250 nM.
“OVCAR-4 (ovary, adherent, top dose 0.25 µM)”: the AUC was determined as 0.696.
For the cell line “OVCAR-5 (ovary, adherent, top dose 0.25 µM)”, the AUC is 0.629 and the half-inhibitory concentration (IC50) amounted to 38.2 nM.
The like results for “OVCAR-8 (ovary, adherent, top dose 0.25 µM)” were, in that order, 0.624 and 32.9 nM.
The like results for “OVISE (ovary, adherent, top dose 0.25 µM)” were, in that order, 0.635 and 41.8 nM.
Turning to “OVK-18 (ovary, adherent, top dose 0.25 µM)”, the AUC came out at 0.511 and the 50% inhibitory concentration (IC50) was 16.8 nM.
Take “OVKATE (ovary, adherent, top dose 0.25 µM)”: the AUC amounted to 0.882 and the concentration for half-maximal inhibition (IC50) was greater than 250 nM.
